Hit rate of the full screen: of about 45,000 compounds, about 200 (0.44%) were called active. Inconclusive results (about 7%) are left out. The call rests on the fitted dose curve; in most records, active means well fitted activation curve with a large enough effect; inconclusive means small, poorly fitted or top-dose-only effect; inactive means no such curve, though single readings can be large or run the other way. Some of the results follow.
Assay: qHTS of TDP-43 Inhibitors: NCGC Sytravon Library Screen; further: nearly all actives have a fitted effect of over 55% in size; on growth rescue (activation): 0% is about no effect
Settings: yeast TDP-43 toxicity rescue, BacTiter-Glo growth, 24 h; series mostly up to 46.1 µM; growth rescue (activation): at the top concentration
Method in brief: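 TDP-43-expressing yeast, pregrown in raffinose, seeded at OD600 0.02 in galactose medium with compound for 24 hr at 30 deg C. Growth read by BacTiter-Glo luminescence, so rescue of toxicity appears as activation.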
For `O=C(NCCCN1CCOCC1)c1cccc(S(=O)(=O)N2CCc3ccccc3C2)c1`, the “growth rescue (activation)” value was inactive: 5.99%. With `CC(C)(C)Nc1c([N+](=O)[O-])c(=O)sc2ccccc12` the “growth rescue (activation)” value was inactive: 16.1%. With `O=C(O)c1cc(S(=O)(=O)Nc2cccc(Oc3ccccc3)c2)ccc1Br` the “growth rescue (activation)” value was inactive: 4.57%. With `Cc1cc(Cl)ccc1NC(=O)CN1CCCC1` the “growth rescue (activation)” value was inactive: 1.91%. For `O=C(CCCN1C(=O)/C(=C/c2ccccc2)SC1=S)Nc1ccc(C(=O)O)c(O)c1`, the “growth rescue (activation)” value was inactive: 3.27%. For `Cc1cccc(NC(=O)NCC2CCN(c3ccc(S(=O)(=O)N4CCOCC4)cc3)CC2)c1`, the “growth rescue (activation)” value was inactive: 11.6%. With `CC(=O)c1cc2c(cc1N/C(=N/S(=O)(=O)c1ccccc1)c1ccc(Cl)cc1)OCO2` the “growth rescue (activation)” value was inactive: -2.2%. With `CCOc1ccccc1NC(=O)COC(=O)C1CC(=O)N(c2c(C)cccc2C)C1` (stereo not drawn) the “growth rescue (activation)” value was inactive: -2.79%. With `O=C(CSc1cccc2cccnc12)N/N=C/c1cccnc1` the “growth rescue (activation)” value was inactive: 15.1%. For `Cc1nc(CN2CCN(C(=O)c3ccc(Br)cc3)CC2)cs1`, the “growth rescue (activation)” value was inactive: 10.4%. In the case of `O=C(Nc1ccon1)c1ccc(S(=O)(=O)N2CCOCC2)cc1`, the “growth rescue (activation)” value is reported as inactive: -18.4%. For `O=C(CCc1ccccc1)NN1C(=O)C2C3C=CC(C3)C2C1=O` (stereo not drawn), the “growth rescue (activation)” value was inactive: -0.636%. With `CCCN(CCC)CC(C)(C)NS(=O)(=O)c1ccc(Cl)cc1` the “growth rescue (activation)” value was inactive: -7.96%. In the case of `CCn1c(SCC(=O)NC2=NCCS2)nnc1C(C)NC(=O)c1ccccc1Br` (stereo not drawn), the “growth rescue (activation)” value is reported as inactive: 1.1%. For `O=C(O)/C(=C\c1ccc(Br)cc1)NC(=O)c1cccs1`, the “growth rescue (activation)” value was inactive: -20.9%. For `CCC(/C=N/NC(=O)CCCCC(=O)N/N=C/C(CC)CC)CC`, the “growth rescue (activation)” value was inactive: 7.97%. For `CCN(CCO)C(=O)CC1C(=O)NCCN1Cc1c(F)cccc1Cl` (stereo not drawn), the “growth rescue (activation)” value was inactive: 3.11%. With `COc1cc2nc(Nc3ccc(C)c(Cl)c3)nc(N)c2cc1OC` the “growth rescue (activation)” value was inactive: 13.6%. For `CCN(CC)c1ncnc2c1ncn2[C@H]1CN(Cc2ccc(Cl)cc2)C[C@@H](CO)O1`, the “growth rescue (activation)” value was inactive: 4.75%. With `Cc1ccccc1OCc1n(CC(=O)OC2CC(C)CCC2C(C)C)c2ccccc2[n+]1C` (stereo not drawn) the “growth rescue (activation)” value was inactive: -1.63%. In the case of `CCCn1c(SCC(=O)NCc2ccc(C)cc2)n[nH]c1=O`, the “growth rescue (activation)” value is reported as inactive: 12.1%. With `CC1(C(=O)NCc2cccc3ccccc23)CCN1Cc1ccccc1OC(F)F` (stereo not drawn) the “growth rescue (activation)” value was inactive: -4.03%. With `Cc1cc(NC(=O)c2cc3ccccc3o2)no1` the “growth rescue (activation)” value was inactive: -2.59%. In the case of `Cc1nc2c(o1)CCc1ccccc1C2N1CCN(C)CC1` (stereo not drawn), the Potency is reported as “inactive”. In the case of `Cc1nc2cc3c(cc2c(C)c1C(=O)OC(C)C)OCO3`, the “growth rescue (activation)” value is reported as inactive: -2.14%. In the case of `CNC(=O)COC(=O)c1ccc(Cl)c(S(=O)(=O)N2CCCC2)c1`, the “growth rescue (activation)” value is reported as inactive: -9.45%. In the case of `S=c1[nH]nc(COc2cccc(Cl)c2)n1Cc1ccccc1`, the “growth rescue (activation)” value is reported as inactive: 26.2%. In the case of `COc1ccccc1-c1ccc2c(c1)C(C)(Cc1ccc(OC(F)(F)F)cc1)C(=O)N2` (stereo not drawn), the “growth rescue (activation)” value is reported as inactive: -2.43%. With `Cc1ccc(NC(=O)Cc2nc(COC(=O)c3c(F)cccc3Cl)cs2)cc1` the “growth rescue (activation)” value was inactive: 18.5%. In the case of `Cc1cccc(-n2c(Cc3ccccc3)n[nH]c2=S)c1`, the “growth rescue (activation)” value is reported as inactive: 11.2%. In the case of `Cc1cc(C(=O)NC2CCCC2)c2ccccc2n1`, the “growth rescue (activation)” value is reported as inactive: -0.0302%. With `Cc1ccc(C)c(SCC(=O)Nc2cccc(S(=O)(=O)N3CCOCC3)c2)c1` the “growth rescue (activation)” value was inactive: 14.8%. For `O=C(CCn1nnc2ccccc2c1=O)N[C@@H](Cc1c[nH]c2ccccc12)C(=O)O`, the “growth rescue (activation)” value was inactive: -8.31%. With `C/C(=N/NC(=O)CN1CCN(Cc2ccccc2Cl)CC1)c1ccco1` the “growth rescue (activation)” value was inactive: 12.6%. For `Cc1ccc(-c2cc(C(=O)Nc3cccnc3)[nH]n2)c(O)c1C`, the “growth rescue (activation)” value was inactive: 5.66%. With `CCNC(=S)Nc1cc(OCC)c(NC(=O)c2cccs2)cc1OCC` the “growth rescue (activation)” value was inactive: 12%. With `Cc1c(C(=O)c2ccc(F)cc2)c2ccccn2c1CCc1ccccn1` the “growth rescue (activation)” value was inactive: 5.62%. For `COCCN(C(=O)c1csnn1)C(C(=O)NC1CCCCC1)c1ccccc1F` (stereo not drawn), the “growth rescue (activation)” value was inactive: -0.138%. For `CCOC(=O)c1c(C)c(C(=O)Nc2ccc(F)cc2)c(C)n1C`, the “growth rescue (activation)” value was inactive: 22.5%. For `COC(=O)CSc1nc2ccc(NC(=O)c3ccccc3C(=O)N3CCOCC3)cc2s1`, the “growth rescue (activation)” value was inactive: -7.21%. In the case of `Cc1ccc(S(=O)(=O)N2CCCCC2)cc1NC(=O)C1CC1`, the “growth rescue (activation)” value is reported as inactive: 0.424%. For `COc1ccc(CNCCC(c2ccc(C)cc2)c2ccco2)cc1` (stereo not drawn), the “growth rescue (activation)” value was inactive: 4.74%. For `O=C(Nc1noc2ccccc12)c1cccc(Cl)c1Cl`, the “growth rescue (activation)” value was inactive: 7.76%. For `CCOC(=O)c1cc(NC(=O)CNCC(c2ccccc2)N(C)C)cc(C(=O)OCC)c1` (stereo not drawn), the “growth rescue (activation)” value was inactive: -4.64%. With `Cc1cccc(OCC(=O)Nc2ccc(S(=O)(=O)Nc3onc(C)c3C)cc2)c1C` the “growth rescue (activation)” value was inactive: -10.2%. For `Cc1cccn2c(=O)c3cc(C(=O)N4CC(C)CC(C)C4)sc3nc12` (stereo not drawn), the “growth rescue (activation)” value was inactive: 19.6%. With `O=C(CSc1nnc(-c2cccs2)n1CC1CCCO1)c1cc2ccccc2o1` (stereo not drawn) the “growth rescue (activation)” value was inactive: 17.2%. In the case of `CC1(C(=O)NS(=O)(=O)c2ccc(F)cc2F)CCN1C(=O)CC(c1ccccc1)c1ccccc1` (stereo not drawn), the “growth rescue (activation)” value is reported as inactive: 14.6%. For `CC(C)(C)NC(=O)c1oc2ccccc2c1COc1ccccc1`, the “growth rescue (activation)” value was inactive: 17.7%. For `COc1ccccc1NC(=O)Nc1nc(C(N)C2CCCCC2)cs1` (stereo not drawn), the “growth rescue (activation)” value was inactive: 6.95%. With `CCOC(=O)c1cc(-c2ccc(N3CCOCC3)cc2)nn1-c1ccccc1` the “growth rescue (activation)” value was inactive: -10.7%. For `Cc1ccc(OCC(=O)N(C)CC(=O)Nc2ccc(F)cc2)c([N+](=O)[O-])n1`, the “growth rescue (activation)” value was inactive: -0.218%. In the case of `Cc1cc(C)n2nc(SC(C)C(=O)N(C)C3CCCCC3)nc2n1` (stereo not drawn), the “growth rescue (activation)” value is reported as inactive: 9.66%. With `O=S(=O)(NCc1ccco1)c1ccc2ccccc2c1` the Potency was active: 11.2 µM. In the case of `CN(C)c1ccc(CC(=O)N2CCCCC2c2cc(C(=O)Nc3cccc4c3CCCC4)no2)cc1` (stereo not drawn), the “growth rescue (activation)” value is reported as inactive: 2.11%. In the case of `Cc1cc(C)nc(NN=C2CCCC2)n1`, the “growth rescue (activation)” value is reported as inactive: 22.2%. With `Cc1ccc(COC(=O)c2ccc3ccccc3n2)cc1` the “growth rescue (activation)” value was inactive: -7.68%. In the case of `Cc1ccc(C(=O)Nc2cccc([N+](=O)[O-])c2)cc1S(=O)(=O)Nc1ccc(NC(=O)c2ccccc2)cc1`, the “growth rescue (activation)” value is reported as inactive: 13.2%. In the case of `Cc1ccc(NC(=S)NC2CCCCC2)cc1S(=O)(=O)N(C)C`, the “growth rescue (activation)” value is reported as inactive: 8.18%. In the case of `Cn1c(N)c(C(=O)c2ccc(Cl)cc2)c(=O)n(C)c1=O`, the “growth rescue (activation)” value is reported as inactive: -12.1%. With `CCc1nc(Nc2ccc(OC)cc2OC)c2oc3ccccc3c2n1` the “growth rescue (activation)” value was inactive: -5.33%. In the case of `CCC1=NN2C(=N)/C(=C\c3ccc(OCCOc4ccc(NC(C)=O)cc4)cc3)C(=O)N=C2S1`, the “growth rescue (activation)” value is reported as inactive: 9.51%. With `COc1ccc(F)c(CN2CCC(CO)(Cc3cccc(C(F)(F)F)c3)CC2)c1` the “growth rescue (activation)” value was inactive: -3.65%. With `Cc1cc(C)n(S(=O)(=O)c2ccc3oc(=O)ccc3c2)n1` the “growth rescue (activation)” value was inactive: 2.86%. With `CC(=O)c1ccc(NC(=O)C2(S(=O)(=O)c3ccccc3)CC2)cc1` the “growth rescue (activation)” value was inactive: 12.5%. With `CCC(C(=O)Nc1c[nH]c(=O)[nH]c1=O)c1ccccc1` (stereo not drawn) the “growth rescue (activation)” value was inactive: 10.5%. In the case of `COc1ccc(C(=O)NNC(=O)CSc2nnc(C)n2CC2CCCO2)cc1` (stereo not drawn), the “growth rescue (activation)” value is reported as inactive: 10.9%. In the case of `Cc1ccc(NC(=O)[C@@H]2O[C@H](CO)[C@@H](O)[C@H]2O)cc1C(F)(F)F`, the “growth rescue (activation)” value is reported as inactive: 8.79%.
Potency means the concentration at half of the fitted maximal effect.
